Data published in PubChem BioAssay AID686979 (National Center for Advancing Translational Sciences (NCATS), 2013).
“And” between values parts separate entries of the source, which are not always exact repeats. Equal entries are not always repeated. Hit rate of the full screen: of about 420,000 compounds, about 50,000 (12%) were called active. The shares of active, inactive and inconclusive entries below differ from those in the screen. The call rests on the fitted dose curve; in most records, active means well fitted inhibition curve with a large enough effect; inconclusive means small, poorly fitted or top-dose-only effect; inactive means flat fitted curve, though single readings scatter. Potencies beside an inconclusive call are fits to weak or partial responses and may not hold up.

Experiment: qHTS for Inhibitors of human tyrosyl-DNA phosphodiesterase 1 (TDP1): qHTS in cells in presence of CPT; further: nearly all actives have a fitted effect of over 55% in size
Settings: chicken DT40 Tdp1-/-;hTDP1 cells + 20 nM CPT, ATP luminescence, 48 h; activity change, negative = growth inhibition: at 46.2 µM (top of the series)
Procedure, shortened: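 Chicken DT40 Tdp1-/- cells complemented with human TDP1, 400 cells/well, exposed to compounds plus 20 nM camptothecin for at least 48 h at 37 C; viability read as ATP content by CellTiter-Glo luminescence.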
On the % scale 0 is the no-effect control and ±100 the full control effect; potency means the concentration at half of the fitted maximal effect; tags describe the fitted curve by direction and shape.

Row | Structure (SMILES) | Potency | activity change, negative = growth inhibition
1 | Cc1ccc(Cc2c(C3CCCCC3)nc3c4ccccc4ccn23)cc1 | inconclusive: 23.1 µM [inhibitor, single point] | –
2 | COc1ccc(NC(=O)Nc2ccc3c(c2)C(=O)N([C@@H](C)CO)C[C@@H](C)[C@@H](CN(C)S(=O)(=O)c2cccs2)O3)cc1 | inconclusive: 29.1 µM [inhibitor, single point] | –
3 | COc1ccc(-n2cc(C(=O)c3cc4ccccc4oc3=O)c(C(C)=O)n2)cc1 | active: 23.1 µM | –
4 | CCCC(=O)NC(=S)Nc1cccc(Cl)c1N1CCCC1 | inconclusive: 29.1 µM [inhibitor, single point] | –
5 | CC(C)(C)c1ccc(C(=O)N2CCCCC2CCN2CCCCC2)cc1 (centres undefined) | inconclusive: 29.1 µM [inhibitor, single point] | –
6 | CCCCN(C=O)c1c(CC)nc2c(OCCn3cccc3)cccn12 | inconclusive: 23.1 µM [inhibitor, single point] | –
7 | CC1CCCN(c2ccc(C(=O)Nc3ccc4c(c3)OCO4)cc2[N+](=O)[O-])C1 (centres undefined) | inconclusive: 23.1 µM [inhibitor, single point] | –
8 | Clc1ccc(-c2nnc(NCCN3CCCC3)c3ccccc23)cc1 | – | inactive: -22.7%
9 | CCN(CC)S(=O)(=O)c1ccc(N2CCCC2)c(NS(=O)(=O)c2ccc([N+](=O)[O-])cc2)c1 | inconclusive: 29.1 µM [inhibitor, single point] | –
10 | COC(=O)c1cc(NC(=O)Cn2nc(-c3ccc(C)c(C)c3)ccc2=O)cc(C(=O)OC)c1 | – | inactive: 3.81%
11 | Cc1ccc(NC(=O)CN2C(=O)NC(C)(C)C2=O)cc1S(=O)(=O)N1CCCCCC1 | – | inactive: -8.91%
12 | COC(=O)Cn1c(CN2CCN(c3ccc(F)cc3)CC2)nc2c1c(=O)n(C)c(=O)n2C | active: 2.31 µM | –
13 | O=C(c1cccs1)n1nc(-c2ccco2)nc1SCc1ccccc1 | inconclusive: 2.06 µM [inhibitor, full curve, poor fit] | –
14 | CCC(C)NC(=O)C1=CC(c2ccc3c(c2)OCO3)=NS(=O)(=O)N1C (centres undefined) | – | inactive: 7.9%
15 | O=C(C=C1SCCS1)/C=C/c1ccco1 | inconclusive: 18.4 µM [inhibitor, single point] | –
16 | CCCCCCCCN1C(=O)[C@H](CC(=O)NCc2cccs2)C[C@@]2(C(=O)OCC)CCCC=C12 | inconclusive: 20.6 µM [inhibitor, single point] | –
17 | COC(=O)C(Cc1ccc(OC(=O)c2ccccc2C)cc1)N1Cc2ccccc2C1=O (centres undefined) | inconclusive: 29.1 µM [inhibitor, single point] | –
18 | COC(=O)c1ccc(Cn2nnc3c(=O)[nH]c(C4CCCN(S(=O)(=O)c5cccc(Cl)c5)C4)nc32)cc1 (centres undefined) | inconclusive: 23.1 µM [inhibitor, single point] and inconclusive: 18.4 µM [inhibitor, single point] | –
19 | Cc1ccc(/C=C2/NC(=O)N(Cc3ccccc3F)C2=O)s1 | – | inconclusive: -32.8% [inhibitor]
20 | Cc1ccc(C(=O)NCCNC(=O)c2ccccn2)cc1 | – | inactive: -11.5%
21 | CCNC(=O)COC(=O)c1cc(-c2ccc(OC)cc2)nc2ccccc12 | inconclusive: 23.1 µM [inhibitor, single point] | –
22 | CN(C(=O)CC(=O)Nc1ccc(Cl)c(Cl)c1)c1ccccc1 | – | inactive: -10.3%
23 | Cc1ccccc1CSc1ncc(CO)n1Cc1ccc(F)cc1 | active: 18.4 µM | –

Row | Structure (SMILES) | Potency | activity change, negative = growth inhibition
24 | CCOc1ccc(-c2cc(-c3nc(-c4ccc(OC)c(OC)c4)no3)[nH]n2)cc1 | active: 16.4 µM | –
25 | NC(=O)CSc1nnc(C2CC2)n1-c1ccccc1 | – | inactive: 7.15%
26 | Clc1ccccc1-c1nccc(NCc2cccs2)n1 | inconclusive: 29.1 µM [inhibitor, single point] | –
27 | Cc1sc(NC(=O)/C=C/C(=O)O)c(C(N)=O)c1-c1ccc(C(C)(C)C)cc1 | active: 23.1 µM | –
28 | Cn1c(CN2CCOCC2)nnc1SCC(=O)Nc1ccc2c(c1)OCCO2 | – | inactive: -0.148%
29 | NC(=S)N/N=C\c1ccccc1OCc1ccccc1 | active: 29.1 µM | –
30 | Cc1ccc(-c2ccc(/C=C(\C#N)C(N)=S)o2)c([N+](=O)[O-])c1 | inconclusive: 29.1 µM [inhibitor, single point] | –
31 | COc1cc(C(=O)N(c2ccc(C)c(C)c2)C2C=CS(=O)(=O)C2)cc(OC)c1OC (centres undefined) | inconclusive: 7.31 µM [inhibitor, single point] | –
32 | CS(=O)(=O)Nc1ccc(C2=NN(C(=O)c3ccccc3)C(c3cccs3)C2)cc1 (centres undefined) | inconclusive: 29.1 µM [inhibitor, single point] | –
33 | COCCN(C(=O)COC(=O)/C=C/c1nc2ccccc2s1)c1c(N)n(Cc2ccccc2)c(=O)[nH]c1=O | inconclusive: 29.1 µM [inhibitor, single point] | –
34 | NC(=S)N/N=C/c1ccc(-n2nncc2-c2ccc(Cl)cc2)cc1 | – | inactive: -8.29%
35 | CC(C)CNC(=O)c1cccc(NC(=O)c2ccc(Cl)c([N+](=O)[O-])c2)c1 | active: 20.6 µM | –
36 | COCCN(CCOC)c1nc(-c2ccc([N+](=O)[O-])cc2)nc2ccccc12 | active: 0.58 µM | –
37 | Cc1cc(=O)c2c(C)nn(-c3ccccc3)c2[nH]1 | – | inactive: 11.7%
38 | c1ccc(OCc2nn3c(-c4ccco4)nnc3s2)cc1 | inconclusive: 25.9 µM [inhibitor, single point] | –
39 | CC(C)CN1C(=S)SC(C)(C)C1n1oc(=O)n(-c2ccc(Cl)cc2)c1=O (centres undefined) | inconclusive: 18.4 µM [inhibitor, single point] | –
40 | Cc1cccc(NC(=O)COC(=O)c2ccc3nc(C)c(C)nc3c2)c1 | – | inactive: -5.28%
41 | CSc1ccc(CN(C)C(=O)c2cc(Cl)c3c(c2)OCCO3)cc1 | – | inactive: -7.13%
42 | COc1cc(/C=C/C(=O)OCC(=O)NC(C)c2ccccc2)cc(OC)c1OC (centres undefined) | – | inactive: 11.1%
43 | CCCCNC(=S)N(CCN(CC)CC)Cc1cc2cc3c(cc2[nH]c1=O)OCCO3 | active: 25.9 µM | –
44 | O=C(NCc1cccc(C(F)(F)F)c1)C1CC(c2ccccc2[N+](=O)[O-])=NO1 (centres undefined) | inconclusive: 29.1 µM [inhibitor, single point] | –
45 | COc1ccc(Cc2nc3ccccc3n2Cc2ccccc2F)cc1 | inconclusive: 23.1 µM [inhibitor, single point] | –
46 | CC(CC(=O)N1CCN(c2cccc(Cl)c2)CC1)S(=O)(=O)c1ccc2c(c1)NC(=O)CO2 (centres undefined) | active: 4.11 µM | –

Row | Structure (SMILES) | Potency | activity change, negative = growth inhibition
47 | O=C(c1ccccc1)n1nnc2ccccc21 | inconclusive: 18.4 µM [inhibitor, single point] | –
48 | CCOC(=O)C1=C(C)N=c2s/c(=C/c3cccc([N+](=O)[O-])c3O)c(=O)n2C1c1cc(OC)c(OC)c(OC)c1 (centres undefined) | inconclusive: 14.6 µM [inhibitor, partial curve, poor fit] | –
49 | O=C(CN1C(=O)/C(=C/c2ccccc2F)Sc2ccccc21)N1CCN(c2ccccn2)CC1 | inconclusive: 18.4 µM [inhibitor, single point] | –
50 | CCc1cc2c(=O)c(-c3nc4ccccc4n3C)c(CCCC(=O)O)oc2cc1OC(=O)C(C)(C)C | – | inactive: 4.25%
51 | Cc1cc(Cl)ccc1OCC(=O)N(Cc1ccco1)Cc1ccco1 | inconclusive: 23.1 µM [inhibitor, single point] | –
52 | COc1ccc(-c2cn3cccnc3n2)cc1NC(=O)c1cc(C)cc(C)c1 | inconclusive: 29.1 µM [inhibitor, single point] | –
53 | Cc1c(C(=O)N2CCOCC2)c(S(=O)(=O)Nc2ccc(Br)cc2F)c(C)n1C | inconclusive: 29.1 µM [inhibitor, single point] | –
54 | CC(O)CNc1nc2c(c(=O)n(Cc3ccc(Cl)cc3)c(=O)n2C)n1C (centres undefined) | inconclusive: 8.2 µM [inhibitor, full curve, poor fit] | inconclusive: -31.8% [inhibitor]
55 | COc1ccc(CCNC(=O)CCc2c(C)c3cc4c(C)coc4c(C)c3oc2=O)cc1OC | active: 20.6 µM | –
56 | CCCN1C(=O)COc2ccc(-c3n[nH]c(=O)c4ccccc34)cc21 | inconclusive: 25.9 µM [inhibitor, single point] | –
57 | Cc1nn(C)c(C(=O)Nc2ccc(Cn3cccn3)cc2)c1[N+](=O)[O-] | – | inactive: 1.31%
58 | Cc1cc(OCC(=O)C(C)(C)C)c2c(-c3ccccc3)cc(=O)oc2c1 | inconclusive: 18.4 µM [inhibitor, single point] | –
59 | COC(=O)c1c(NC(=O)C2CCCCC2)sc2c1CC(C)(C)NC2(C)C | inconclusive: 23.1 µM [inhibitor, single point] | –
60 | COc1ccc(-c2nn(-c3ccccc3)cc2CNC[C@H]2O[C@@H](n3cnc(C(N)=O)n3)[C@H](O)[C@@H]2O)cc1 | – | inactive: -10.9%
61 | CN1OC[C@@H]2CN(C(=S)NCCc3ccccc3)[C@H](c3ccc(N4CCCCC4)cc3)C[C@@H]21 | active: 16.4 µM | –
62 | CC(/C=N/NC(=O)Cc1cccs1)=C\c1ccccc1 | – | inconclusive: -30.4% [inhibitor]
63 | CC(C)COc1ccc(CSCCNC(=S)Nc2ccccc2)cc1 | inconclusive: 18.4 µM [inhibitor, single point] | –
64 | COc1ccc(-c2nnc(C3CCN(S(=O)(=O)c4ccc(C)c(C)c4)CC3)o2)cc1 | inconclusive: 25.9 µM [inhibitor, single point] | –
65 | COc1ccccc1CNC(=O)C/C(C)=N/NC(=O)COc1ccc(C)cc1Br | active: 11.6 µM | –
66 | CC(C)(C)c1ccc(/C=C/C(=O)Nc2cccnc2)cc1 | inconclusive: 29.1 µM [inhibitor, single point] | –
67 | CC(=O)/C(=N/Nc1cccc(Cl)c1)Sc1nnc(C(O)c2ccccc2)n1-c1ccccc1 (centres undefined) | – | inactive: -12.2%
68 | O=C(c1ccc(Cl)cc1)N1CCOc2ccccc21 | – | inconclusive: -34.7% [inhibitor]
